# Laboratory results reported in ChEMBL document CHEMBL4888484, “Replenishing the malaria drug discovery pipeline: Screening and hit evaluation of the MMV Hit Generation Library 1 (HGL1) against asexual blood stage Plasmodium falciparum ,using a nano luciferase reporter read-out” (2022).
# About 540 (0.36%) of roughly 150,000 compounds showed an effect of 50% or more. Some of the results follow.
# System: Plasmodium falciparum
# Experiment: Primary screen in NF54 nanoGlo assay, in single point, at 2uM, 72h; a lower Z score goes with more inhibition
# Format: functional, Erythrocyte
# Details: timepoint 72 hour
SMILES,% Inhibition,Z score
CCN1CC[C@H](N(C)C(=O)CNc2ccccc2)C1,5%,-0.65
CC(C)N(C)Cc1nnnn1CC(=O)N1CCC[C@H](C(=O)c2ccccc2)C1,-9%,1.22
CN(Cc1ccccc1)C(=O)c1nn2c(C(F)(F)F)c3c(nc2c1Cl)-c1ccccc1CC3,2%,-0.36
Cn1nccc1C1CC2CCC(C1)N2S(=O)(=O)c1cccc(N)c1 (stereo not given),-6%,1.21
O=c1[nH]c2ccccc2nc1[C@H](c1ccccc1)[n+]1ccccc1,-3%,0.23
O[C@@H]1COC2(C1)CN(Cc1ccc(OC(F)(F)F)cc1)C2,0%,-0.02
CCN(C(=O)CCN1C(=O)c2ccccc2C1=O)c1ccccc1,-11%,1.41
O=C(CCc1cccs1)N[C@H]1COCC[C@@H]1Oc1ccc(CO)cc1,-18%,1.59
O=C1OCC2(CCN(C(=O)N[C@H]3c4ccccc4C[C@@H]3O)CC2)O1,1%,-0.18
COc1cccc(CNC(=O)Cn2c(N3CCN(c4ccccc4)CC3)nc(C)cc2=O)c1,-9%,1.68
Cc1noc(COc2ccc(C(=O)N[C@H]3CCc4cc(C#N)ccc43)cn2)n1,32%,-3.66
Cc1noc(C2CCN(C(=O)c3ccc(N4CCN(C(C)C)CC4)cc3)CC2)n1,6%,-0.8
O=C(NCc1ccnc(-n2cncn2)c1)N1CCC[C@H]1C(F)F,-6%,0.91
CN(CC(=O)N(C)c1ccccc1)CC1(CO)CCCC1,-24%,2.29
CCc1nc(C)cc(N2C[C@@H]3OC(=O)N(C4CCN(C(C)C)CC4)[C@@H]3C2)n1,-5%,0.87
C[C@@H](Cn1ccnc1-c1nc2ccccc2[nH]1)Oc1cccnc1,-5%,1
CC(C)(C)OC(=O)N1C2CCC1CC(NC(=O)c1ccoc1)C2 (stereo not given),-9%,1.65
COCC[C@H](C)NC(=O)N1CCC(C)(C)C1,-17%,1.68
CCC1CN(C(=O)C(C)S(C)(=O)=O)CC1N1CCOCC1 (stereo not given),-1%,0.08
C#CCNC(=O)[C@H](C)Oc1ccc(C)c(F)c1,-9%,1.67
C[C@@H](CNC(=O)NCCc1nccn1C(F)F)Oc1ccccc1,-8%,0.77
O=C(NCCCn1ccnc1)c1cc(=O)[nH]c2cc(F)ccc12,16%,-2

SMILES,% Inhibition,Z score
O=S(=O)(NC1CCN(C2CCCC2O)CC1)c1cccc(Br)c1 (stereo not given),-8%,0.96
CN1CC[C@H](C(=O)N2CCN(c3ccccn3)CC2)CC1=O,3%,-0.43
Cc1nc(-c2cc(S(=O)(=O)Nc3cccc(Cl)c3)cn2C)sc1C(=O)N1CCOCC1,0%,-0.02
CC(=O)N[C@H]1CN(Cc2nc(C)cc(C)n2)C[C@@H]1c1ccc(C)cc1,-7%,0.82
C[C@H]1CN(c2cccc(-c3ccccc3)c2)C(=O)CN1C(=O)c1cccc(O)c1,-17%,1.95
O=C(Nc1ccc2c(c1)OCCO2)NC1CC2CC2C1 (stereo not given),-13%,1.78
COCCC1(CNc2nccnc2C#N)CCCC1,-9%,1.06
CCOCCOc1ccccc1C(=O)N1CC[C@@H]2OCc3cccc(c3)Oc3cc(ccc3OC)CCC(=O)N[C@@H]2C1,3%,-0.44
CC(=O)N(C)c1cccc(NC(=O)NCCC(F)(F)F)c1,-12%,1.01
Oc1c(Cl)cc(Cl)cc1CNc1nc2ccc(Br)cn2n1,-11%,1.13
COc1cccc(OCCNC(=O)C(C)(C)C)c1,-12%,1.2
CCc1ccc(N2C[C@@H](c3nc(CC)no3)CC2=O)cc1,7%,-1.39
Cc1ccc(-c2ccc(CCC(=O)N3CCC(n4cnnc4)CC3)o2)cc1,-6%,0.86
O=C(Cc1cccc(F)c1)N1CCC2(CC1)C[C@H](CO)N(C(=O)c1ccccc1)C2,-3%,0.33
O=c1cnc2cc(F)c(F)cc2n1CCOC[C@H]1CCCO1,-9%,1.74
C[C@@H](CN1CCCCC1)NC(=O)c1cnn2c1CCCC2,-4%,0.52
O=C(CC1N=C(O)N(Cc2cccc(F)c2)C1=O)N1CCOC(c2ccccc2)C1 (stereo not given),-6%,0.77
COc1ccccc1CN(C(=O)c1ccc(C)cc1)c1ccc(CC(=O)N(C)C2CCCCC2)cc1,-13%,2.04
O=C(C[C@H]1COCCN1)c1ccccc1,-13%,2.09
c1cc2nnc(C3CC3)n2nc1N1CCC(OC2CCOCC2)CC1,-4%,0.61
C[C@@H](Cn1cncn1)c1nc(CC(N)=O)nn1-c1cccc2c1CCC2,-11%,1.69
Cc1c(Cl)cccc1NC(=O)c1ccnc(-c2ccsc2)c1,10%,-1.3

SMILES,% Inhibition,Z score
Cn1cc(S(=O)(=O)NC2CCN(c3cnsn3)CC2)cn1,7%,-0.96
Cc1n[nH]c(C)c1CCC(=O)NCc1cc2n(n1)CCN(C1CCCCC1)C2,-16%,2.27
c1n[nH]c2c1CCC(NC1CCC13CCCC3)C2 (stereo not given),-4%,0.59
Cc1ccnc(-n2nc(C)cc2NC(=O)Cc2noc3ccccc23)c1,-2%,0.28
CN(C)CC(C)(C)CNC(=O)C(=O)Nc1ccc(N(C)C)cc1,-17%,2.65
Cc1ncc(CN2CCc3cncnc3C2)s1,1%,-0.19
CC(=O)NC[C@H]1CCCN(C(=O)c2coc(COc3cccc(F)c3)n2)C1,-8%,1.56
Cc1ccccc1-c1cn[nH]c1C1CCN(c2cnccn2)CC1,-11%,1.43
CN(CCN(C)C(=O)c1cncc(F)c1)C(=O)c1cncc(F)c1,22%,-2.4
CC(C)(C)OC(=O)N(Cc1nccn1C(F)F)C1CC1,-2%,0.15
Cc1ccc(NC(=O)C[C@](C)(O)C(F)(F)F)c(C)c1,-6%,1.13
CC[C@H](NC(=O)CCc1cnn(C)c1)c1ccc2c(c1)CC(C)(C)O2,-4%,0.74
CN(CCn1nc(C2CC2)nc1C1CC1)Cc1ccccc1,-14%,1.38
NC(=O)C1CCN(C2CN(C(=O)c3ccc4nsnc4c3)C2)CC1,-7%,1.27
CCN(C(=O)Cn1c(C)cc2nc3n(c(=O)c21)CCCCC3)c1cccc(C)c1,0%,-0.03
COCCn1c([C@H](C)NC(=O)CCn2ccc3ccc(F)cc32)nc2ccccc21,-14%,1.68
O=C(NCCn1nc2c(cc1=O)CCC2)c1cncc(O)c1,14%,-1.84
Cc1nn(C)c(Cl)c1CN1CCC[C@H](N(C)Cc2ccccc2)C1,-4%,0.41
CN1C(=O)CC[C@]2(CNC(=O)c3ccc(F)cc3)CCCC=C12,-12%,2.2
CC[C@H](CO)NC(=O)NC(C)c1ccncc1F (stereo not given in full),3%,-0.51
CC(=O)N1CCC(CNC(=O)c2cc(C)cc(F)c2)CC1,5%,-0.77
COc1nc2c(cc1CNC(=O)c1ccnc(N)c1)C(=O)N(C1CCCC1)C2,-16%,2.25

SMILES,% Inhibition,Z score
OC[C@@]1(CCOc2ccccc2)CCCN(Cc2cc3c(cc2Cl)OCO3)C1,-1%,0.29
CC(=O)NC1CCC(Nc2ccc(N3CC(C)OC(C)C3)cc2)CC1 (stereo not given),-11%,1.08
CC(C)(CC(=O)N1CC[C@](C)(C(N)=O)C1)C(F)(F)F,2%,-0.38
O=C(Nc1nonc1NC(=O)c1ccc2c(c1)OCO2)c1ccc2c(c1)OCO2,-1%,0.1
CCc1cnc(CNC(=O)NCC(C)N2CCOCC2C)s1 (stereo not given),-6%,0.61
CCC(CC)(C(=O)O)C(=O)Nc1ccc2c(c1)CNCC2,-10%,1.6
Cc1nc(C)c(Cc2cccc(F)c2)c(N2CCN(C[C@@H](O)Cc3ccccc3)CC2)n1,-4%,0.53
C#CCNC(=O)c1ccc(N[C@H]2CCCN(c3ncccn3)C2)nc1,1%,-0.12
Cc1cccc(NC(=O)Nc2ccccc2C2CC2)c1,-8%,1.07
COC(=O)c1cn(-c2cccc(C(=O)N3CCNC(=O)C3)c2)cc2c(O)nnc1-2,0%,0
COCCc1nc(CO[C@H]2CCCN(C(C)=O)C2)no1,-17%,2.51
COc1ncc(NC(=O)Cc2ccc(F)cc2)c(N2CCCC2)n1,16%,-2.41
C[C@H](NC(=O)C1(c2cccs2)CCCCC1)C(=O)N(C)C,-9%,1.69
Cc1ccc(CCC(=O)Nc2nc3c(cc2C#N)CCC3)o1,-3%,0.31
CS(=O)(=O)N1C[C@H]2CC[C@@H](C1)N(C(=O)c1ccccc1OC(F)F)C2,1%,-0.22
CCOc1ncccc1CNC(=O)c1cc(Br)c[nH]1,6%,-0.5
CCS(=O)(=O)NC[C@H](C)N1CCC(Oc2cccc(Cl)c2)CC1,-10%,1.56
CC(F)CCNC(=O)N1CCO[C@@H](C)C1 (stereo not given in full),9%,-1.1
Cc1c[nH]c(CNc2cc(C3CC3)nc(C3CC3)n2)n1,1%,-0.08
